# Out of some 150,000 compounds screened, about 6,500 (4.3%) were called active. Inconclusive means that the source gave no clear call. Such entries were picked first, then a sample of the others. Calls follow the shape of the dose curve; as a rule, active = well fitted inhibition curve with a large enough effect (not every such curve was filed as active); inconclusive = small, poorly fitted or top-dose-only effect, or another doubt; inactive = no such curve, though single readings can be large or run the other way. Potencies of inconclusive entries are left out as doubtful fits.
# Molecular target: 15-hydroxyprostaglandin dehydrogenase [NAD(+)] (Homo sapiens) (UniProt P15428)
# UniProt P15428, sequence (P15428 whole entry, looked up): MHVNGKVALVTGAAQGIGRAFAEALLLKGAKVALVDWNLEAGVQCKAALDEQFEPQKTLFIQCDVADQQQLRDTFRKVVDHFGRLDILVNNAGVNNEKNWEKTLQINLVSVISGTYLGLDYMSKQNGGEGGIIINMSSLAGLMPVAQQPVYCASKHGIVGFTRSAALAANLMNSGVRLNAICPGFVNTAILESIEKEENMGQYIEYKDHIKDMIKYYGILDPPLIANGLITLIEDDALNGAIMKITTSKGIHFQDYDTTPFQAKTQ
# Experiment: qHTS Assay for Inhibitors of HPGD (15-Hydroxyprostaglandin Dehydrogenase)
# Conditions: purified HPGD, NADH fluorescence kinetic, PGE2 substrate; activity change, negative = inhibition: hits give low values
# Summary of the method: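 NADH formation kinetics: reaction with 30 uM PGE2 and 1 mM NAD+ (final), 20 nM enzyme, Tris-HCl pH 8 with Tween 20, after 15 min compound preincubation at room temperature. Fluorescence change, last versus first of five reads.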
# % is scaled to controls: 0 for no effect and ±100 for the full control effect; potency is read from the fitted curve at half-maximal effect; tags tell the direction and shape of the fitted curve.
Compound,"activity change, negative = inhibition",Potency
Cc1ccc(C(=O)C(OC(=O)CN2C(=O)c3ccccc3C2=O)c2ccccc2)cc1 (stereo not given),inactive: -13.4%,–
COc1cccc(-c2nc(N3CCN(Cc4ccccc4)CC3)c3ccccc3n2)c1O,–,"inconclusive [inhibitor, partial curve]"
CC(=O)c1cccc(NC(=S)NC(=O)c2ccc(Br)cc2)c1,inactive: -11.1%,–
O=S(=O)(c1ccc(OCC(O)CN2CCN(c3ccccc3O)CC2)cc1)N1CCOCC1 (stereo not given),–,"inconclusive [inhibitor, single point]"
CCC1Oc2ccc(C)cc2N(CC(=O)NCCC2=CCCCC2)C1=O (stereo not given),inactive: -0.768%,–
O=C(c1ccc(-c2ccccc2)cc1)N1CCC(C(=O)N2CCCC2)CC1,–,active: 15.8 µM
Cc1ccccc1-c1nnc(Cc2ccccc2)o1,–,"inconclusive [inhibitor, single point]"
CC1CCCCN1C(=O)/C(=C\c1ccccc1)c1ccccc1 (stereo not given),–,active: 14.1 µM
COC(=O)Cn1c(=NC(=O)c2cccc(OC)c2)sc2cc(OC)ccc21,–,"inconclusive [inhibitor, partial curve]"
COCCCNC(=O)Cn1nnc(-c2ccc(NC(=O)c3ccccc3OC)cc2)n1,–,"inconclusive [inhibitor, single point]"
NC(=O)c1nsc(C(=O)N(CC(=O)NCc2ccco2)c2ccccc2F)c1N,–,"inconclusive [inhibitor, partial curve]"
COc1cc(OC)cc(-c2cc3nc4c(c(N5CCN(c6ncccn6)CC5)n3n2)CCCC4)c1,–,"inconclusive [inhibitor, partial curve]"
O=C(CCC(=O)OCC(=O)c1ccc(Cl)cc1)NC1CCCCC1,inactive: -19.6%,–
CCC(=NCCc1c(C)[nH]c2ccccc12)C1=C(O)CC(c2ccccc2)CC1=O (stereo not given),–,"inconclusive [inhibitor, partial curve, poor fit]"
Cc1ccc(/C=C/C(=O)N2CCc3ccccc32)o1,–,"inconclusive [inhibitor, single point]"
COc1cc(C(=O)O)cc(Br)c1OC1CCCC1,inactive: -9.2%,–
CCOC(=O)c1cnn2c(N)c(C#N)nnc12,inactive: -12.5%,–
CCn1c2ccccc2c2nnc(SCC(=O)Nc3c(C)n(C)n(-c4ccccc4)c3=O)nc21,inactive: -9.02%,–
COc1ccc2c(c1)Cc1sc(NC(=O)c3ccccc3)nc1-2,–,"inconclusive [inhibitor, partial curve]"
COc1ccc(-c2c(C)nn3c(N4CCN(Cc5ccccc5)CC4)cc(C)nc23)cc1OC,–,"inconclusive [inhibitor, partial curve]"
Cn1c(-c2ccc(F)cc2)cnc1SCC(=O)NCc1ccco1,–,active: 31.6 µM
CS(=O)(=O)N(Cc1ccccc1)c1ccc(C(=O)Nc2ccc3c(c2)OCO3)cc1,inactive: -13.8%,–
COC(=O)c1ccc(C)cc1,inactive: -8.38%,–
CCC(C)C(=O)Nc1nc(C)c(-c2csc(Nc3ccccc3OC)n2)s1 (stereo not given),–,"inconclusive [inhibitor, partial curve]"

Compound,"activity change, negative = inhibition",Potency
Cc1cc(/C=C(\C#N)C(=O)NCc2cccs2)c(C)n1-c1ccccc1F,–,"inconclusive [inhibitor, partial curve]"
COc1cc(/C=C/C(=O)O)cc(OC)c1OC,–,"inconclusive [inhibitor, partial curve]"
O=C(Nc1nc(-c2ccc(Cl)cc2Cl)cs1)C1CCCO1 (stereo not given),–,"inconclusive [inhibitor, partial curve]"
CC(=O)Nc1cccc(Oc2cc(C#N)c(C#N)cc2N2CCCCCC2)c1,–,"inconclusive [inhibitor, partial curve]"
CC1CC(C)CN(C(=O)c2ccc3c(c2NCCO)C(=O)c2ccccc2C3=O)C1 (stereo not given),–,"inconclusive [inhibitor, partial curve, poor fit]"
CCOC(=O)c1c(NC(=O)CSc2nnnn2-c2ccc(OC)cc2)sc(C)c1C,–,active: 2.82 µM
Nc1ccccc1C(=O)N/N=C1\C2CN3CCN(C2)CC1(c1ccccc1)C3,–,"inconclusive [inhibitor, partial curve]"
CCc1nnc(NS(=O)(=O)c2ccc(NC(=S)NC(=O)/C=C/c3ccc(F)cc3)cc2)s1,inactive: -17.2%,–
N#Cc1c(SCc2ccccc2)nc(N2CCOCC2)c2c1CCCC2,–,"inconclusive [inhibitor, partial curve]"
COc1ccc2nc(NC(=O)c3ccc(-n4nc(C)cc4C)cc3)sc2c1,–,"inconclusive [inhibitor, single point]"
O=C(O)c1c[nH]c2cc(OCc3ccccc3)ccc2c1=O,–,"inconclusive [inhibitor, partial curve]"
CCN(CC)CC(=O)NC12CC3CC(CC(C3)C1)C2,inactive: -21.8%,–
Cc1cc(N2CCCC2)nc(SCC(=O)c2ccccc2)n1,inactive: -8.06%,–
CCOC(=O)c1sc2ncn(C(CC)C(=O)OC)c(=O)c2c1C (stereo not given),–,"inconclusive [inhibitor, partial curve]"
Cc1cc(NC(=O)c2cc(-c3ccncc3)nc3c(C)cccc23)no1,–,"inconclusive [inhibitor, partial curve]"
O=C(c1cc2ccccc2[nH]1)N1CCOCC1,inactive: -4.5%,–
CC1CCCN(c2ccc(C(=O)NCc3ccc4c(c3)OCO4)cc2[N+](=O)[O-])C1 (stereo not given),–,"inconclusive [inhibitor, partial curve]"
O=C(OCc1ccc2c(c1)OCO2)c1cccc(S(=O)(=O)N2CCCCC2)c1,–,"inconclusive [inhibitor, partial curve]"
CCOC(=O)C1CCCN(c2nc3ccccc3nc2C(C#N)C(=O)OC(C)COC)C1 (stereo not given),–,"inconclusive [inhibitor, partial curve]"
COc1ccc(-c2cc(=O)oc3cc(OCC(=O)c4cccc([N+](=O)[O-])c4)ccc23)cc1,–,active: 2.82 µM
CN(C)CCCn1c(SCC(=O)Nc2sc3c(c2C#N)CCCC3)nnc1-c1ccncc1,inactive: 5.92%,–
Cc1ccc(OCC(=O)Nc2ccc(-c3nc4ncccc4o3)cc2)cc1,–,"inconclusive [inhibitor, partial curve]"
Cc1occc1C(=O)Nc1sc2c(c1C(N)=O)CCCCC2,inactive: -24.9%,–
COc1cccc(/C=N/n2cncn2)c1OCC#N,–,"inconclusive [inhibitor, partial curve]"

Compound,"activity change, negative = inhibition",Potency
CCOC(=O)CCNC(=O)Nc1ccc2nc(C)n(Cc3ccccc3Cl)c(=O)c2c1,–,"inconclusive [inhibitor, partial curve]"
O=c1[nH]c2sc3c(c2c2nncn12)CCCC3,–,"inconclusive [inhibitor, partial curve]"
Cn1c(Cl)cnc1C1CC(=O)c2cc(Cl)ccc2O1 (stereo not given),–,"inconclusive [inhibitor, partial curve]"
Cc1occc1C(=O)NCCCCc1ccccc1,–,active: 20 µM
CCC1(C)Cc2ccccc2-c2nc(NCCO)n(-c3ccccc3)c(=O)c21 (stereo not given),–,"inconclusive [inhibitor, partial curve]"
CC(=O)Nc1cccc(NC(=O)CSc2ccc(C(F)(F)F)cc2[N+](=O)[O-])c1,–,"inconclusive [inhibitor, single point]"
CCOC(=O)c1c(/N=C/C2C(=O)CCCC2=O)sc(C)c1C,inactive: -6.53%,–
CCOC(=O)c1cnn(-c2ncnc3sc4c(c23)CCC4)c1N,–,active: 7.94 µM
CSc1nc(Oc2ccc3ccccc3c2)c2ccccc2n1,–,"inconclusive [inhibitor, partial curve]"
CCn1cc(C(=O)NCc2ccccc2)c(=O)c2cc(F)c(N3CCN(C(=O)c4ccco4)CC3)cc21,–,"inconclusive [inhibitor, partial curve]"
O=C(NNc1cccc(Cl)n1)Nc1ccccc1Cl,inactive: -13.5%,–
CCOCC(=O)Nc1ccc(-c2cn3cccnc3n2)cc1,–,"inconclusive [inhibitor, partial curve]"
CCC1(CC)Cc2ccccc2-c2nc(NCCO)[nH]c(=O)c21,–,"inconclusive [inhibitor, partial curve]"
CC(C)C(C(=O)Nc1ncn[nH]1)N1C(=O)c2ccccc2C1=O (stereo not given),inactive: -1.46%,–
CCCc1nc(-c2cc3ccc(C)cc3[nH]c2=O)no1,–,"inconclusive [inhibitor, single point]"
COc1ccc(/C=N/NC(=O)c2nc(-c3ccccc3)n(-c3ccccc3)n2)cc1,–,"inconclusive [inhibitor, single point]"
O=C(CSc1ccccc1Cl)NC1CCCc2ccccc21 (stereo not given),–,"inconclusive [inhibitor, partial curve]"
CCOc1ccc(-c2nc(C#N)c(NCC3CCCO3)o2)cc1 (stereo not given),–,"inconclusive [inhibitor, partial curve]"
COc1ccc(/C=C(/NC(=O)c2ccccc2)C(=O)N/N=C/c2ccc3c(c2)OCO3)cc1OC,–,active: 31.6 µM
CSCCNC(=O)c1ccc(C(C)(C)C)cc1,–,active: 14.1 µM
COCCCn1c(=N)c(C(=O)NCc2ccc3c(c2)OCO3)cc2c(=O)n3ccccc3nc21,–,"inconclusive [inhibitor, partial curve]"
COC(=O)c1cc(NC(=O)c2ccc(Cn3cc(Cl)cn3)o2)cc(C(=O)OC)c1,–,active: 1.26 µM

# Reference: PubChem BioAssay AID894 (National Center for Advancing Translational Sciences (NCATS), 2007)
